# Screen size: about 360,000 compounds; about 25,000 (6.9%) were called active. This list was built around the results that the source calls inconclusive (neither active nor inactive); the mix of calls is not that of the screen. Calls follow the shape of the dose curve; as a rule, active = well fitted inhibition curve with a large enough effect; inconclusive = small, poorly fitted or top-dose-only effect; inactive = flat fitted curve, though single readings scatter. Potencies of inconclusive entries are doubtful fits and often do not repeat.
# Target: Luciferin 4-monooxygenase (Photinus pyralis) (UniProt P08659)
# Experiment: qHTS profiling assay for firefly luciferase inhibitor/activator using purifed enzyme and Km concentrations of substrates (counterscreen for miR-21 project); also: nearly all actives have a fitted effect of over 55% in size;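 as to activity change, negative = inhibition: plate controls were vehicle for no effect and reference inhibitor for full effect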
# Settings: purified FLuc, luminescence inhibition; series mostly up to 57.5 µM; activity change, negative = inhibition: at the top concentration
# How it was run: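 Purified P. pyralis luciferase (10nM final) with 10uM D-luciferin and 10uM ATP (Km levels) in 50mM Tris acetate pH 7.5, 10mM Mg acetate, 0.01% Tween-20, 0.05% BSA; qHTS 6-point titration, ~60 µM downward; luminescence read.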
# Potency is read from the fitted curve at half-maximal effect; tags tell the direction and shape of the fitted curve.
# UniProt P08659, sequence (P08659 whole entry, looked up): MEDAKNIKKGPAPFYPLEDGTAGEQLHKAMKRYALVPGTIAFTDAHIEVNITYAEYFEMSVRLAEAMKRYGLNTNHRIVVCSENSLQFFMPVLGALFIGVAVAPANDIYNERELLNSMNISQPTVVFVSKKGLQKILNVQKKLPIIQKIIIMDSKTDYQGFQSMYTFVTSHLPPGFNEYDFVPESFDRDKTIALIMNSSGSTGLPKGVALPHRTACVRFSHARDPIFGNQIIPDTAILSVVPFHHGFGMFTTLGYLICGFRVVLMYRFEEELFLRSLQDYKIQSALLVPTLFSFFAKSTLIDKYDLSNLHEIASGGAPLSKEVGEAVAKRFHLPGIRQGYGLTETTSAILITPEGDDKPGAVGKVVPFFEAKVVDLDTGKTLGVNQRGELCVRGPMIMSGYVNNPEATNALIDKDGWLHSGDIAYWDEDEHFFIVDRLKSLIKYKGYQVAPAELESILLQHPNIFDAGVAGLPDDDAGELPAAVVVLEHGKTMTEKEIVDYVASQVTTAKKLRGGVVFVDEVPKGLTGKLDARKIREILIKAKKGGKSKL
Structure (SMILES),Potency,"activity change, negative = inhibition"
O=C(Nc1ccc(N2CCOCC2)c(Cl)c1)c1cc(F)c(F)cc1Cl,"inconclusive: 26.9 µM [inhibitor, single point]",
Cc1cccc(/C(N)=N/OC(=O)c2ccc(F)cc2)c1,active: 0.269 µM,
Cc1csc2nc(COC(=O)c3cccc(NC(=O)COc4ccccc4Cl)c3)cc(=O)n12,active: 1.2 µM,
C/C(=N\NC(=O)c1cccc(N/N=C(\C)c2ccco2)c1)c1ccco1,active: 13.5 µM,
CC(=O)Nc1ccc(C2=NN(c3ccccc3)C(c3cccs3)C2)cc1 (centres undefined),"inconclusive: 21.3 µM [inhibitor, single point]",
O=C1N=C(N2CCCC2)S/C1=C\c1cccc(Br)c1,"inconclusive: 37.9 µM [inhibitor, partial curve, poor fit]",
NC(=S)N/N=C/c1ccc(-c2cc(Cl)ccc2Cl)o1,"inconclusive: 26.9 µM [inhibitor, single point]",
CC(C)CNC(=O)c1ccc(COc2ccc(Cl)cc2Cl)o1,"inconclusive: 37.9 µM [inhibitor, partial curve, poor fit]",
CN(C)c1ccc(C(=O)OCc2ccc(Br)cc2)cc1,"inconclusive: 33.8 µM [inhibitor, single point]",
COc1ccc2c(c1)CCc1c(C(=O)Nc3ccn(Cc4ccc(C)cc4)n3)noc1-2,"inconclusive: 6.75 µM [inhibitor, full curve]",
COC(=O)c1ccc(NS(=O)(=O)N(C)C)cc1,,inactive: -1.72%
O=C(Nc1nc2ccccc2s1)c1cccc(S(=O)(=O)N2CCc3ccccc32)c1,"inconclusive: 23.9 µM [inhibitor, single point]",
OC(CCN1CCCCC1)c1ccc(-c2ccccc2)cc1 (centres undefined),"inconclusive: 37.9 µM [inhibitor, partial curve, poor fit]",
O=C(COC(=O)CCc1nc2ccccc2n1-c1ccccc1)Nc1ccc(N2CCCCC2)cc1,"inconclusive: 21.3 µM [inhibitor, partial curve, poor fit]",
CC1CCCCC1NC(=O)CCNS(=O)(=O)c1ccc(Cl)cc1 (centres undefined),,inactive: 1.11%
CCCCNC(=O)c1cc(-c2cccnc2)nc2ccc(S(=O)(=O)NCCCC)cc12,,inactive: -1.46%
c1ccc(-c2csc(-c3cccnc3)n2)cc1,active: 19 µM,
COc1ccc(Cc2nc(C(=O)Nc3ccc(Cl)cc3)cs2)cc1,"inconclusive: 21.3 µM [inhibitor, single point]",
Cc1cccc(/C(N)=N/OC(=O)COc2ccccc2Cl)c1,active: 19 µM,
Cc1cc(O)ccc1N=Cc1c(C(F)(F)F)[nH][nH]c1=O,"inconclusive: 26.9 µM [inhibitor, single point]",
C/C(=N\OCC(=O)NCC(F)(F)F)c1cc2ccccc2o1,"inconclusive: 12 µM [inhibitor, single point]",
O=C(N/N=C/c1ccccc1[N+](=O)[O-])c1ccncc1,"inconclusive: 37.9 µM [inhibitor, single point]",

Structure (SMILES),Potency,"activity change, negative = inhibition"
COc1cccc(CN(C)C(=O)c2sccc2-c2ccccc2)c1OC,"inconclusive: 37.9 µM [inhibitor, partial curve, poor fit]",
O=C(CSc1nc(-c2ccco2)cc(C(F)(F)F)n1)Nc1ccc(C(=O)N2CCCCC2)cc1,,inactive: -4.24%
COc1ccc(C(CNC(=O)c2cccc(NC(=O)c3cccs3)c2)N2CCCC2)cc1 (centres undefined),"inconclusive: 21.3 µM [inhibitor, partial curve, poor fit]",
COc1ccc(CCNC(=O)Cc2ccc(OCc3ccccc3)c(OC)c2[N+](=O)[O-])cc1OCc1ccccc1,,inactive: -0.771%
O=C(O)c1ccc(-c2ccc(/C=C3\NC(=O)N(Cc4ccc(Cl)cc4)C3=O)o2)cc1Cl,"inconclusive: 37.9 µM [inhibitor, partial curve, poor fit]",
O=C(Nc1nccs1)c1ccccn1,"inconclusive: 23.9 µM [inhibitor, single point]",
CC(=O)c1c(C)n(S(=O)(=O)c2ccc(Cl)cc2)c2ccc(NS(=O)(=O)c3ccc(Cl)cc3)cc12,,inactive: 0.804%
COC1=C/C(=C/c2c(N)n3nc(CC(=O)N4CCCC4)sc3nc2=O)C=CC1=O,,inactive: 3.45%
COc1ccc(Nc2nc(-c3sc(NC(C)=O)nc3C)cs2)cc1,"inconclusive: 37.9 µM [inhibitor, partial curve, poor fit]",
COc1ccccc1OCCNC(=O)c1cccc(S(=O)(=O)N2CCN(C)CC2)c1,active: 13.5 µM,
CC(=O)NCCc1ccc(S(=O)(=O)Nc2ccc(NC(=O)c3ccc(F)cc3)cc2)cc1,"inconclusive: 37.9 µM [inhibitor, partial curve, poor fit]",
CCOc1ccc(-c2nc(CSCC(=O)N3CCN(C(=O)c4ccco4)CC3)c(C)o2)cc1,active: 19 µM,
O=C1c2ccccc2C(=O)N1CCCn1c(=O)oc2ccccc21,"inconclusive: 26.9 µM [inhibitor, partial curve]",
COCCCNC(=O)c1ccc(Cn2c(SCc3ccc(F)cc3)nc3cccnc32)cc1,active: 3.38 µM,
Cc1ccc2nc(SCC(=O)Nc3ccc(C)c([N+](=O)[O-])c3)[nH]c2c1,"inconclusive: 37.9 µM [inhibitor, single point]",
CN(Cc1cn(-c2ccccc2)nc1-c1ccc(F)cc1)C(=O)CCC(=O)O,active: 12 µM,
Oc1cccc(/C=N/Nc2nn3cnnc3c3ccccc23)c1,active: 8.49 µM,
O=C(Nc1ccccc1C(=O)O)c1cc(S(=O)(=O)N2CCCCCC2)ccc1Cl,"inconclusive: 37.9 µM [inhibitor, partial curve, poor fit]",
COc1cccc(NC(=O)C2CCN(c3ncccn3)CC2)c1,"inconclusive: 23.9 µM [inhibitor, single point]",
O=C(Cc1nc2ccccc2[nH]1)c1ccc(Br)cc1,active: 21.3 µM,
O=C(NCCN1CCCCC1)c1cc(Cl)ccc1Cl,,inactive: -1.3%
Cc1cccc(NC(=O)CSc2ccc(-c3sc(-c4ccccc4)nc3C)nn2)c1C,"inconclusive: 6.75 µM [inhibitor, partial curve, poor fit]",
